Sequences with one replicate were seen in a single cluster, so their values are uncertain.
System: ATP
Experiment: switch fluorescence ratio, 500 uM ATP over buffer (Cy3 cluster intensity, sum of 5 cycles each) (fold (ratio)); higher = stronger signal-on switching upon ATP binding; sequences stand for … in TCGTCGGCAGCGTCAGATGTGTATAAGAGACAGTTTTTTTTTTTTTTTTTTTTTTTTT…TC
Details: aptamer strand: ATP DNA aptamer (quencher-CACCTGGGGGAGTATTGCGGAGGAAGG + anchor), 100 nM annealed; ATP concentration: 500 uM; one replicate
Summary of the method: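 Values give the fluorescence ratio for each switch-domain sequence, averaged from per-cluster ratios of summed target-cycle to summed buffer-cycle Cy3 intensity. The Cy3-labelled switching-strand clusters sat on a modified Illumina MiSeq flow-cell, were annealed to 100 nM quencher-labelled ATP aptamer, and were imaged in selection buffer, then after 15 min with 500 uM ATP at 22 °C. Five cycles ran with NaOH stripping and re-annealing between them, and clusters outside 100-1000 RFU were excluded.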
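Further: ATP exposure 15 min at 22 °C before imaging.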

Row | Sequence | switch fluorescence ratio
1 | ATAAATACTG | 1.43
2 | CGTCATGTTT | 0.969
3 | CGAATTTACG | 1
4 | GGGCTCGAGT | 1
5 | TTGTGGGTGA | 1
6 | GATCAATGCC | 1
7 | AAGAGGGAT | 0.969
8 | AACTTGCCGG | 0.985
9 | TGTGTCGTGC | 0.996
10 | TATTTATT | 1.04
11 | GATCGCGGGT | 1.03
12 | TGCACAGACT | 1.1
13 | CCGGTCGGGA | 0.98
14 | TGCTTCTCAA | 1.09
15 | GGAACCTTGT | 1.09
16 | CTGGTGATAG | 1.01
17 | GGAGGTTGCA | 0.99
18 | ATGGTCCATA | 1.03
19 | ACAAGAGTAT | 0.998
20 | TCTCAGGATA | 1.04
21 | ACTCCCTTGC | 3.54
22 | AATAAGGTCC | 0.928
23 | AGCCTACTCG | 1.17
24 | TTTTTGTGCC | 1.07
25 | GAATCCCCGT | 1.03

Row | Sequence | switch fluorescence ratio
26 | CCGCAGCCAA | 2.63
27 | GTAAGCGCTG | 0.965
28 | AAGCAGTGTG | 0.993
29 | AGAATTACCC | 2.06
30 | TATGATTATA | 1
31 | TAGCGGTCGT | 1.01
32 | TCGGAGTCCC | 1.1
33 | TACTATAAGT | 0.999
34 | AGGCGTGGCA | 1
35 | AGTTTGCGTG | 1.01
36 | TTCTTCGTGC | 1.06
37 | TGATACATTA | 0.998
38 | GAGTTGGATA | 0.983
39 | ACCAATCGAA | 1.05
40 | AGTCCGAGAG | 1.03
41 | TAATCGAAGA | 1.06
42 | GAACATATAG | 0.999
43 | GAGTTGTAAC | 1.04
44 | GATTCATTGC | 0.99
45 | AACACCACAG | 1.3
46 | CGGATACTGT | 0.928
47 | ATCATTTGAC | 1.03
48 | TTAGAGTAAC | 0.997
49 | CAGGGGCAG | 1.06
50 | CGGACTTGGC | 1.06

Row | Sequence | switch fluorescence ratio
51 | GGATACATTG | 0.979
52 | TCGAGGCCTG | 0.947
53 | ATTGTTGCGT | 0.987
54 | AGAGACAAGC | 1.06
55 | CGGGGCGGTA | 1.03
56 | ATGCTTTTAA | 0.973
57 | TGAAATATTA | 1.04
58 | ACAGAGTCCA | 1.01
59 | GCCTCATATG | 0.98
60 | ATGGACGTCA | 0.994
61 | CGGAAATTCT | 1.01
62 | CCTTGGGTG | 1.49
63 | ATACGACTGC | 1.05
64 | CCATTTAACT | 0.987
65 | TTTACTCTGA | 1.21
66 | CTTGTCAGCC | 0.998
67 | ATAGGGGGAC | 1
68 | TTTGAAACAC | 1.08
69 | CGTGTTGCGG | 0.995
70 | CGTGTACTAA | 1.07
71 | CGGGAGAGCG | 0.989
72 | CTTTATATC | 1.01
73 | ATGCCTATTT | 1.02
74 | TTTGCCTACC | 1.28
75 | GGTACCGAGG | 0.998

Row | Sequence | switch fluorescence ratio
76 | ATAATCAGTG | 0.936
77 | TCAGTATTAC | 1.15
78 | TACTACGGAC | 1.62
79 | CCAGTCTACG | 1.01
80 | TTAGGATCTA | 0.967
81 | TTTGGTACGA | 0.986
82 | CAATACACTA | 1.11
83 | TCAAGTTCTA | 1.01
84 | TATGGCCATC | 1
85 | CGTCTCAGCG | 1.01
86 | CGAGGAGAGC | 1.03
87 | CGGGTAGCCT | 1
88 | GCGTATTGGG | 0.958
89 | CTGTGCGCTT | 1.25
90 | GAGCTTCCGT | 1.32
91 | TCTCACCTGT | 1.02
92 | TGTATCCCAT | 1.26
93 | TTCCCTTAGT | 1.05
94 | ATCGGTAAAT | 0.97
95 | ATCGCGGATG | 0.989
96 | TGGGTCGCAA | 1.12
97 | GCGTAATGTA | 0.967
98 | TCACATTACC | 1.35
99 | CTGGTGTAGG | 1
100 | AGACTCCGGG | 0.986

— the supplement of paper PMC10126150
